The list shows a part of the results. The list includes weakly bound sequences.

This note sets out measurements from publication PMC12820563.

In the assay the target is T1, MBP-FoxP3dN (UniProt Q99JB6).
T1 sequence: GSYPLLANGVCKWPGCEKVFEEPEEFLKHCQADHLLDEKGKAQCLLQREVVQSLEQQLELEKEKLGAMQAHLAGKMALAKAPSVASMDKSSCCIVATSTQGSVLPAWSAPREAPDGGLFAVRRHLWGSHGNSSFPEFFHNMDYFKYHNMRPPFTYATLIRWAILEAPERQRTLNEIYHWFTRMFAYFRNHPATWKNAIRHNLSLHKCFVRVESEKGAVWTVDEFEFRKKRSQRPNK
Put plainly: PD-seq (MBP pull-down with sequencing). Conditions: 20 mM Tris-HCl pH 7.5, 100 mM NaCl, 1.5 mM MgCl2, 0.4 uM protein, 0.1 uM dsDNA library, 30 min, room temperature, amylose pull-down; high values mean tight binding; double strand, one strand shown.
As to “GATGATTGTTCTCCCAGCTGATGAATTTGCGTCGTCGAGTAAACAAATTTTCCTAATCTTTCTGTTCAAGCGCCATCTAC”, the binding signal (RPM ratio (pull-down/input)) turned out to be 2.28. Take “GATGATTGTTCTCCCAGCTGATGAATTGCAGGATTCGAGTAAACAAATTTTCCTAATCTTTCTGTTCAAGCGCCATCTAC”: the binding signal (RPM ratio (pull-down/input)) came to 0.551.

On to “GATGATTGTTCTCCCAGCTGATGAATTCGTCGAGTCGAGTAAACAAATTTTCCTAATCTTTCTGTTCAAGCGCCATCTAC”, for which the binding signal (RPM ratio (pull-down/input)) was found to be 0.264. The value for “GATGATTGTTCTCCCAGCTGATGAATTGCAGACATCGAGTAAACAAATTTTCCTAATCTTTCTGTTCAAGCGCCATCTAC” was 0.762. For “GATGATTGTTCTCCCAGCTGATGAATTGCGTTCGTCGAGTAAACAAATTTTCCTAATCTTTCTGTTCAAGCGCCATCTAC”, the binding signal (RPM ratio (pull-down/input)) was determined as 1.18. The result for “GATGATTGTTCTCCCAGCTGATGAATTACTAGGTTCGAGTAAACAAATTTTCCTAATCTTTCTGTTCAAGCGCCATCTAC” reads 0.261; that for “GATGATTGTTCTCCCAGCTGATGAATTGACGACATCGAGTAAACAAATTTTCCTAATCTTTCTGTTCAAGCGCCATCTAC”, 0.576. In the case of “GATGATTGTTCTCCCAGCTGATGAATTTCGGCGCTCGAGTAAACAAATTTTCCTAATCTTTCTGTTCAAGCGCCATCTAC”, the binding signal (RPM ratio (pull-down/input)) is 0.359.

For “GATGATTGTTCTCCCAGCTGATGAATTCTGAGAATCGAGTAAACAAATTTTCCTAATCTTTCTGTTCAAGCGCCATCTAC”, the binding signal (RPM ratio (pull-down/input)) stood at 0.199. “GATGATTGTTCTCCCAGCTGATGAATTCAGTTTGTCGAGTAAACAAATTTTCCTAATCTTTCTGTTCAAGCGCCATCTAC”: the binding signal (RPM ratio (pull-down/input)) came to 3.87. The result for “GATGATTGTTCTCCCAGCTGATGAATTATATCGCTCGAGTAAACAAATTTTCCTAATCTTTCTGTTCAAGCGCCATCTAC” reads 0.557; that for “GATGATTGTTCTCCCAGCTGATGAATTGGCTAGGTCGAGTAAACAAATTTTCCTAATCTTTCTGTTCAAGCGCCATCTAC”, 0.308; that for “GATGATTGTTCTCCCAGCTGATGAATTCAGCGCCTCGAGTAAACAAATTTTCCTAATCTTTCTGTTCAAGCGCCATCTAC”, 1.17. Consider “GATGATTGTTCTCCCAGCTGATGAATTCGCATCCTCGAGTAAACAAATTTTCCTAATCTTTCTGTTCAAGCGCCATCTAC”, for which the binding signal (RPM ratio (pull-down/input)) is 5.74. The result for “GATGATTGTTCTCCCAGCTGATGAATTCTCGGCTTCGAGTAAACAAATTTTCCTAATCTTTCTGTTCAAGCGCCATCTAC” reads 0.263. Regarding “GATGATTGTTCTCCCAGCTGATGAATTAGAGCTGTCGAGTAAACAAATTTTCCTAATCTTTCTGTTCAAGCGCCATCTAC”, the binding signal (RPM ratio (pull-down/input)) worked out at 0.35. The value for “GATGATTGTTCTCCCAGCTGATGAATTAAGTGATTCGAGTAAACAAATTTTCCTAATCTTTCTGTTCAAGCGCCATCTAC” was 1.38. The result for “GATGATTGTTCTCCCAGCTGATGAATTGACAGCCTCGAGTAAACAAATTTTCCTAATCTTTCTGTTCAAGCGCCATCTAC” reads 0.47.

As to “GATGATTGTTCTCCCAGCTGATGAATTATAATCGTCGAGTAAACAAATTTTCCTAATCTTTCTGTTCAAGCGCCATCTAC”, the binding signal (RPM ratio (pull-down/input)) was 0.542.

For the sequence “GATGATTGTTCTCCCAGCTGATGAATTCTGGCCCTCGAGTAAACAAATTTTCCTAATCTTTCTGTTCAAGCGCCATCTAC”, the binding signal (RPM ratio (pull-down/input)) was 0.387. The result for “GATGATTGTTCTCCCAGCTGATGAATTCGATAAATCGAGTAAACAAATTTTCCTAATCTTTCTGTTCAAGCGCCATCTAC” reads 0.252. The value for “GATGATTGTTCTCCCAGCTGATGAATTAAGCCGTTCGAGTAAACAAATTTTCCTAATCTTTCTGTTCAAGCGCCATCTAC” was 0.86; that for “GATGATTGTTCTCCCAGCTGATGAATTAAACTTCTCGAGTAAACAAATTTTCCTAATCTTTCTGTTCAAGCGCCATCTAC” was 0.311.

“GATGATTGTTCTCCCAGCTGATGAATTGTTAGCGTCGAGTAAACAAATTTTCCTAATCTTTCTGTTCAAGCGCCATCTAC”: the binding signal (RPM ratio (pull-down/input)) was 1.67. On to “GATGATTGTTCTCCCAGCTGATGAATTCTGGACCTCGAGTAAACAAATTTTCCTAATCTTTCTGTTCAAGCGCCATCTAC”, for which the binding signal (RPM ratio (pull-down/input)) stood at 0.25. The value for “GATGATTGTTCTCCCAGCTGATGAATTTAAAATATCGAGTAAACAAATTTTCCTAATCTTTCTGTTCAAGCGCCATCTAC” was 0.313; that for “GATGATTGTTCTCCCAGCTGATGAATTGTGGGAGTCGAGTAAACAAATTTTCCTAATCTTTCTGTTCAAGCGCCATCTAC” was 0.408. The value for “GATGATTGTTCTCCCAGCTGATGAATTGGTGCGATCGAGTAAACAAATTTTCCTAATCTTTCTGTTCAAGCGCCATCTAC” was 0.732; that for “GATGATTGTTCTCCCAGCTGATGAATTCGGCAACTCGAGTAAACAAATTTTCCTAATCTTTCTGTTCAAGCGCCATCTAC” was 5.06; that for “GATGATTGTTCTCCCAGCTGATGAATTTATCCCTTCGAGTAAACAAATTTTCCTAATCTTTCTGTTCAAGCGCCATCTAC” was 0.899. The result for “GATGATTGTTCTCCCAGCTGATGAATTCACAACGTCGAGTAAACAAATTTTCCTAATCTTTCTGTTCAAGCGCCATCTAC” reads 0.501; that for “GATGATTGTTCTCCCAGCTGATGAATTGCAGGAGTCGAGTAAACAAATTTTCCTAATCTTTCTGTTCAAGCGCCATCTAC”, 0.425; that for “GATGATTGTTCTCCCAGCTGATGAATTTGTGACGTCGAGTAAACAAATTTTCCTAATCTTTCTGTTCAAGCGCCATCTAC”, 1.6. Consider “GATGATTGTTCTCCCAGCTGATGAATTGAGCAAGTCGAGTAAACAAATTTTCCTAATCTTTCTGTTCAAGCGCCATCTAC”, for which the binding signal (RPM ratio (pull-down/input)) came out at 1.08.

Regarding “GATGATTGTTCTCCCAGCTGATGAATTATAATATTCGAGTAAACAAATTTTCCTAATCTTTCTGTTCAAGCGCCATCTAC”, the binding signal (RPM ratio (pull-down/input)) turned out to be 1.08. The result for “GATGATTGTTCTCCCAGCTGATGAATTAGGTAACTCGAGTAAACAAATTTTCCTAATCTTTCTGTTCAAGCGCCATCTAC” reads 1.27. Regarding “GATGATTGTTCTCCCAGCTGATGAATTTTAGTTCTCGAGTAAACAAATTTTCCTAATCTTTCTGTTCAAGCGCCATCTAC”, the binding signal (RPM ratio (pull-down/input)) amounted to 0.751. The result for “GATGATTGTTCTCCCAGCTGATGAATTGAGTTGGTCGAGTAAACAAATTTTCCTAATCTTTCTGTTCAAGCGCCATCTAC” reads 1.66; that for “GATGATTGTTCTCCCAGCTGATGAATTAGCACCGTCGAGTAAACAAATTTTCCTAATCTTTCTGTTCAAGCGCCATCTAC”, 0.376. The value for “GATGATTGTTCTCCCAGCTGATGAATTCGCTAGTTCGAGTAAACAAATTTTCCTAATCTTTCTGTTCAAGCGCCATCTAC” was 1.09.
